# Where a name gives a salt, the structure may show the parent alone. ± gives the standard deviation of the averaged measurements. The list shows a part of the results.
# System: hAMSC donor 1
# Assay: transfection efficiency (EGFP+ cells / Hoechst count) fold change vs vehicle control (ratio); hAMSC are human adipose-derived mesenchymal stem cells given an EGFP-luciferase plasmid by lipofection; higher = enhanced transfection
# Settings: priming compound concentration 100 µM
# 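Further: compounds added 30 min before Lipofectamine 3000 lipoplex transfection, triplicate means relative to DMSO vehicle wells on the same plate, luciferase RLU normalized to BCA total protein.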
row,Structure (SMILES),transfection efficiency
1,C=C(CC)C(=O)c1ccc(OCC(=O)O)c(Cl)c1Cl [Ethacrynic acid],1.9 ± 0.22
2,CN(C)CCC=C1c2ccccc2CCc2ccccc21 [Amitriptyline hydrochloride],0.471 ± 0.27
3,C[C@]12C=CC(=O)C=C1CC[C@@H]1[C@@H]2C(=O)C[C@@]2(C)[C@H]1CC[C@]2(O)C(=O)CO [Prednisone],1.55 ± 0.36
4,Nc1nc(=O)c2nc(CNc3ccc(C(=O)N[C@@H](CCC(=O)O)C(=O)O)cc3)cnc2[nH]1 [Folic acid],1.29 ± 0.48
5,CC[C@H]1OC(=O)[C@H](C)[C@@H](O[C@H]2C[C@@](C)(OC)[C@@H](O)[C@H](C)O2)[C@H](C)[C@@H](O[C@@H]2O[C@H](C)C[C@H](N(C)C)[C@H]2O)[C@](C)(OC)C[C@@H](C)C(=O)[C@H](C)[C@@H](O)[C@]1(C)O [Clarithromycin],0.938 ± 0.24
6,CN1CCN(CCCN2c3ccccc3Sc3ccc(C(F)(F)F)cc32)CC1 [Trifluoperazine hydrochloride],0.4 ± 0.18
7,NNCCc1ccccc1 [Phenelzine sulfate],1.35 ± 0.44
8,O=C(O[C@@H]1C[C@@H]2C[C@H]3C[C@H](C1)N2CC3=O)c1c[nH]c2ccccc12 [Dolasetron mesylate],0.824 ± 0.11
9,CC(C)NCC(O)c1ccc(NS(C)(=O)=O)cc1 (stereo not drawn) [Sotalol hydrochloride],0.61 ± 0.16
10,Cc1ncc([N+](=O)[O-])n1CC(O)CCl (stereo not drawn) [Ornidazole],0.974 ± 0.29
11,CNC(=N)NCCC[C@H](N)C(=O)O [L-NMMA acetate],1.23 ± 0.15
12,C[C@]12CCC(=O)C=C1CC[C@@H]1[C@@H]2C(=O)C[C@@]2(C)[C@H]1CC[C@]2(O)C(=O)CO [Cortisone],0.859 ± 0.084
13,CCOC(=O)c1ccc(OC(=O)CCCCCNC(=N)N)cc1 [Gabexate mesilate],0.947 ± 0.17
14,CNCCC=C1c2ccccc2CCc2ccccc21 [Nortriptyline hydrochloride],0.516 ± 0.35
15,O=C(O[C@@H]1Cc2c(O)cc(O)cc2O[C@@H]1c1cc(O)c(O)c(O)c1)c1cc(O)c(O)c(O)c1 [Epigallocatechin gallate],0.121 ± 0.062
16,CC(C)Oc1ccc2c(=O)c(-c3ccccc3)coc2c1 [Ipriflavone],1.74 ± 0.15
17,CC(=O)Oc1ccccc1C(=O)Nc1ncc([N+](=O)[O-])s1 [Nitazoxanide],1.09 ± 0.27
18,CCN1CCN(C(=O)N[C@@H](C(=O)N[C@@H]2C(=O)N3[C@@H]2SC(C)(C)[C@@H]3C(=O)O)c2ccccc2)C(=O)C1=O [Piperacillin sodium],1.05 ± 0.24
19,CC=CC(=O)N(CC)c1ccccc1C [Crotamiton],1.58 ± 0.15

row,Structure (SMILES),transfection efficiency
1,Nc1nc(Cl)nc2c1ncn2[C@H]1C[C@H](O)[C@@H](CO)O1 [Cladribine],1.91 ± 0.027
2,CCOC(=O)[C@H](CCc1ccccc1)N[C@@H](C)C(=O)N1Cc2ccccc2C[C@H]1C(=O)O [Quinapril hydrochloride],0.783 ± 0.21
3,C[N+]1(C)CCC(OC(=O)C(O)(c2ccccc2)C2CCCC2)C1 (stereo not drawn) [Glycopyrronium bromide],2.14 ± 0.26
4,CSc1ccc2c(c1)N(CCC1CCCCN1C)c1ccccc1S2 (stereo not drawn) [Thioridazine hydrochloride],2.47 ± 1.4
5,CC(C)NCC(O)COc1cccc2[nH]ccc12 (stereo not drawn) [Pindolol],1.27 ± 0.53
6,CC(C)n1c(/C=C/C(O)CC(O)CC(=O)O)c(-c2ccc(F)cc2)c2ccccc21 (stereo not drawn) [Fluvastatin],2.44 ± 0.56
7,CCOC(=O)c1ncn2c1CN(C)C(=O)c1cc(F)ccc1-2 [Flumazenil],0.894 ± 0.34
8,CC(C)(C)NC(=O)[C@@H]1C[C@@H]2CCCC[C@@H]2CN1C[C@@H](O)[C@H](Cc1ccccc1)NC(=O)[C@H](CC(N)=O)NC(=O)c1ccc2ccccc2n1 [Saquinavir mesylate],0.566 ± 0.7
9,CC(C)(C)NC(=O)[C@@H]1CN(Cc2cccnc2)CCN1C[C@@H](O)C[C@@H](Cc1ccccc1)C(=O)N[C@H]1c2ccccc2C[C@H]1O [Indinavir sulfate],1.31 ± 0.27
10,COCCCOc1ccnc(C[S+]([O-])c2nc3ccccc3[nH]2)c1C (stereo not drawn) [Rabeprazole],1.01 ± 0.25
11,CN(C)CCOC(c1ccccc1)c1ccccc1 [Diphenhydramine hydrochloride],0.79 ± 0.33
12,Cc1nc2n(c(=O)c1CCN1CCC(c3noc4cc(F)ccc34)CC1)CCCC2 [Risperidone],0.596 ± 0.21
13,CC[C@H](C)C(=O)O[C@H]1C[C@H](O)C=C2C=C[C@H](C)[C@H](CC[C@@H](O)C[C@@H](O)CC(=O)O)[C@H]21 [Pravastatin sodium],0.785 ± 0.052
14,CCc1nn(CCCN2CCN(c3cccc(Cl)c3)CC2)c(=O)n1CCOc1ccccc1 [Nefazodone hydrochloride],0.564 ± 0.1
15,CN(C)CC[C@@H](c1ccc(Cl)cc1)c1ccccn1 [Dexchlorpheniramine maleate],0.727 ± 0.19
16,CC(C)(C)C(O)/C=C/c1ccc2c(c1)OCO2 (stereo not drawn) [Stiripentol],1.11 ± 0.26
17,CC[C@@]1(O)C(=O)OCc2c1cc1n(c2=O)Cc2cc3c(CN(C)C)c(O)ccc3nc2-1 [Topotecan hydrochloride],1.47 ± 0.16
18,NC(=O)c1ncn([C@@H]2O[C@H](CO)[C@@H](O)[C@H]2O)n1 [Ribavirin],1.13 ± 0.23
19,CN1CCC(=C2c3ccccc3CC(=O)c3sccc32)CC1 [Ketotifen fumarate],1.51 ± 0.12

# From the supplement of paper PMC7238544
